# Inconclusive means that the source gave no clear call. Such entries were picked first, then a sample of the others. No potency is given beside an inconclusive call; the fits are too rough. The source made the active and inactive calls. Calls come from the whole dose curve; as a rule, active = well fitted curve in the direction sought with a large enough effect; inconclusive = small, poorly fitted or top-dose-only effect, or another doubt; inactive = no such curve, though single readings can be large; an effect the other way counts as inactive or inconclusive.
# Assays:
# [1] = qHTS of pediatric cancer cell lines to identify multiple opportunities for drug repurposing: Primary screen for NB-EBc1 cells (AID 1347095)
# In short: (§1)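 Primary screen of approved and investigational compounds on cells in growth media at 37 degrees C, 5% CO2. MIPE set at 11-point and NPC set at 8-point dilutions; viability scored by ATP-based luminescence at 48 hours.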
# [2] = qHTS of pediatric cancer cell lines to identify multiple opportunities for drug repurposing: Primary screen for Saos-2 cells (AID 1347097); conditions: Saos-2 viability, CellTiter-Glo ATP luminescence, 48 h; activity change, negative = cytotoxic: at 46 µM (top of the series) unless noted; note: nearly all actives have a fitted effect of over 40% in size
# In short: as §1
# [3] = qHTS of pediatric cancer cell lines to identify multiple opportunities for drug repurposing: Primary screen for SK-N-SH cells (AID 1347098); conditions: SK-N-SH viability, CellTiter-Glo luminescence, 48 h; activity change, negative = cytotoxic: at 57 µM (top of the series) unless noted; note: nearly all actives have a fitted effect of over 65% in size;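 for activity change, negative = cytotoxic: DMSO served as neutral control and bortezomib at 2.3 µM as positive control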
# In short: (§2)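 Cells (500-1,000/well) rested 5 h, then received compounds for 48 h; metabolically active cells were measured by CellTiter-Glo luminescence. Final concentrations spanned up to 46 µM (MIPE, 11-point) or 0.59 nM-46 µM (NPC, 8-point) in primary screens, 11-point in follow-ups.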
# [4] = qHTS of pediatric cancer cell lines to identify multiple opportunities for drug repurposing: Primary screen for LAN-5 cells (AID 1347100); conditions: LAN-5 neuroblastoma viability, CellTiter-Glo luminescence, 48 h; activity change, negative = cytotoxic: at 46 µM (top of the series) unless noted
# In short: (§3)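 Cells (500-1,000/well) in growth media were settled 5 h at 37 degrees C, then given compounds for 48 h. Viability was read as CellTiter-Glo luminescence. Primary runs used MIPE at 11 points (0.78 nM-46 µM) and NPC at 8 points (0.59 nM-46 µM); follow-ups used 11 points.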
# [5] = qHTS of pediatric cancer cell lines to identify multiple opportunities for drug repurposing: Primary screen for NB1643 cells (AID 1347099); note: nearly all actives have a fitted effect of over 50% in size
# In short: as §1
# [6] = qHTS of pediatric cancer cell lines to identify multiple opportunities for drug repurposing: Primary screen for BT-12 cells (AID 1347101); note: nearly all actives have a fitted effect of over 25% in size
# In short: as §2
# [7] = qHTS of pediatric cancer cell lines to identify multiple opportunities for drug repurposing: Primary screen for U-2 OS cells (AID 1347096); note: nearly all actives have a fitted effect of over 50% in size
# In short: as §3
# [8] = qHTS of pediatric cancer cell lines to identify multiple opportunities for drug repurposing: Primary screen for Rh18 cells (AID 1347102); note: nearly all actives have a fitted effect of over 65% in size
# In short: as §3
# Potency is the fitted concentration of half-maximal effect; tags give direction and shape of the fitted curve.
smiles,measurement,setting,value
CCOC(=O)NC(C)(C)Cc1ccc(Cl)cc1,Potency,[1],inactive
same,Potency,[2],"inconclusive [cytotoxic, single point]"
CN1C2CCC(C)(C)C1CC(OC(=O)C(O)(c1cccs1)c1cccs1)C2 (stereo not given),Potency,[1],inactive
same,Potency,[3],"inconclusive [cytotoxic, partial curve, poor fit]"
same,Potency,[4],inactive
C#CCN(C)[C@H](C)Cc1ccccc1,Potency,[1],inactive
same,Potency,[5],inactive
same,Potency,[6],inactive
CO[C@]12CC[C@@]3(C[C@@H]1[C@](C)(O)C(C)(C)C)[C@@H]1Cc4ccc(O)c5c4[C@@]3(CCN1CC1CC1)[C@H]2O5,Potency,[1],"inconclusive [cytotoxic, single point]"
same,Potency,[7],active: 38.2 µM
same,Potency,[3],"inconclusive [cytotoxic, single point]"
same,Potency,[5],"inconclusive [cytotoxic, single point]"
same,Potency,[4],"inconclusive [cytotoxic, single point]"
same,Potency,[8],"inconclusive [cytotoxic, single point]"
C[CH2][Hg][S]c1ccccc1C(=O)O,Potency,[1],"inconclusive [cytotoxic, single point]"
same,Potency,[7],active: 6.68 µM
same,Potency,[5],active: 2.37 µM
same,Potency,[4],"inconclusive [cytotoxic, single point]"
same,Potency,[8],active: 4.73 µM
CCCN(CCC)C(=O)Cc1c(-c2ccc(Cl)cc2)nc2ccc(Cl)cn12,Potency,[1],inactive
same,Potency,[5],"inconclusive [cytotoxic, full curve]"
same,Potency,[4],inactive
COc1cccc2c1C(=O)c1c(O)c3c(c(O)c1C2=O)C[C@@](O)(C(=O)CO)CC3OC1CC(N2CCOC(OC)C2)C(O)C(C)O1 (stereo not given in full),Potency,[1],"inconclusive [cytotoxic, full curve, poor fit]"
same,Potency,[2],"inconclusive [cytotoxic, full curve, poor fit]"
same,Potency,[4],"inconclusive [cytotoxic, full curve, poor fit]"
same,Potency,[6],active: 0.0692 µM
same,Potency,[8],active: 0.0596 µM
O=C(O)c1ccc2[nH]cc(CCCCN3CC=C(c4ccccc4)CC3)c2c1,Potency,[1],"inconclusive [cytotoxic, single point]"
same,Potency,[2],"inconclusive [cytotoxic, single point]"
same,Potency,[5],inactive
same,Potency,[6],inactive
CC1NCCOC1c1ccccc1 (stereo not given),Potency,[1],inactive
same,Potency,[5],inactive
Cc1sc2c(c1C)C(c1ccc(Cl)cc1)=N[C@@H](CC(=O)OC(C)(C)C)c1nnc(C)n1-2,Potency,[1],active: 4.18 µM
same,Potency,[7],"inconclusive [cytotoxic, partial curve]"
same,Potency,[6],"inconclusive [cytotoxic, partial curve]"
CCC(C(N)=O)N1CCCC1=O (stereo not given),Potency,[1],inactive
same,Potency,[2],inactive
COC(=O)C(Cl)C(=O)OC,Potency,[1],inactive
same,Potency,[2],inactive
same,Potency,[3],inactive
same,Potency,[5],inactive
CCOC(=O)C1(c2ccccc2)CCN(CCc2ccc(N)cc2)CC1,Potency,[1],inactive
same,Potency,[5],inactive
CCO[C@H]1O[C@@H]2OC3(C)CC[C@H]4[C@H](C)CC[C@@H]([C@H]1C)[C@@]24OO3,Potency,[1],"inconclusive [cytotoxic, partial curve]"
same,Potency,[2],"inconclusive [cytotoxic, partial curve]"
same,Potency,[3],"inconclusive [cytotoxic, partial curve, poor fit]"
same,Potency,[4],"inconclusive [cytotoxic, single point]"
same,Potency,[6],"inconclusive [cytotoxic, full curve]"
same,Potency,[8],inactive
CN(C)NC(=O)CCC(=O)O,Potency,[1],inactive
same,Potency,[2],"inconclusive [cytotoxic, partial curve, poor fit]"
same,Potency,[5],"inconclusive [cytotoxic, partial curve]"
same,Potency,[6],inactive
Nc1ccc([As](=O)(O)O)cc1,Potency,[1],inactive
same,Potency,[4],inactive
CCC1(c2ccc(N)cc2)CCC(=O)NC1=O (stereo not given),Potency,[1],inactive
same,Potency,[2],"inconclusive [cytotoxic, full curve]"
same,Potency,[6],inactive
NC(=O)CS(=O)C(c1ccccc1)c1ccccc1 (stereo not given),Potency,[1],inactive
same,Potency,[2],inactive
same,Potency,[6],inactive
CC=C(C)C(=O)O[C@H]1C(C)=C2[C@@H]3OC(=O)[C@@](C)(O)[C@@]3(O)[C@@H](OC(=O)CCC)C[C@](C)(OC(C)=O)[C@@H]2[C@@H]1OC(=O)CCCCCCC,Potency,[1],active: 0.118 µM
same,Potency,[7],active: 0.296 µM
same,Potency,[3],active: 0.136 µM
same,Potency,[5],active: 0.0662 µM
same,Potency,[4],active: 0.0418 µM
O=C1OC(c2ccc(O)c(S(=O)(=O)O)c2)(c2ccc(O)c(S(=O)(=O)O)c2)c2c(Br)c(Br)c(Br)c(Br)c21,Potency,[1],inactive
same,Potency,[2],inactive
same,Potency,[3],inactive
COP(=S)(OC)Oc1ccc(S(N)(=O)=O)cc1,Potency,[1],inactive
same,Potency,[3],inactive
same,Potency,[8],inactive
O=c1n(Cl)c(=O)n(Cl)c(=O)n1Cl,Potency,[1],inactive
same,Potency,[2],inactive
NC(=O)CN1CCCC1=O,Potency,[1],inactive
same,Potency,[5],inactive
c1ccc2c(c1)Sc1ccccc1N2CC1CN2CCC1CC2 (stereo not given),Potency,[1],inactive
same,Potency,[7],"inconclusive [cytotoxic, single point]"
same,Potency,[2],active: 26.6 µM
same,Potency,[4],"inconclusive [cytotoxic, partial curve, poor fit]"
same,Potency,[8],active: 23.7 µM
C[C@]12CC[C@@H]3c4ccc(OC(=O)N(CCCl)CCCl)cc4CC[C@H]3[C@@H]1CC[C@@H]2OP(=O)(O)O,Potency,[1],"inconclusive [cytotoxic, partial curve]"
same,Potency,[7],inactive
same,Potency,[2],"inconclusive [cytotoxic, partial curve]"
same,Potency,[6],inactive
CCN[C@@H](C)Cc1ccccc1,Potency,[1],inactive
same,Potency,[4],inactive
Cc1nnc2n1-c1sc(CCC(=O)N3CCOCC3)cc1C(c1ccccc1Cl)=NC2,Potency,[1],inactive
same,Potency,[5],inactive
CCOC(=O)CC(SP(=S)(OC)OC)C(=O)OCC (stereo not given),Potency,[1],"inconclusive [cytotoxic, single point]"
same,Potency,[2],"inconclusive [cytotoxic, single point]"
same,Potency,[5],"inconclusive [cytotoxic, single point]"
same,Potency,[8],inactive
CC1=NN=C(c2ccc(N)cc2)c2cc3c(cc2C1)OCO3,Potency,[1],inactive
same,Potency,[2],inactive
same,Potency,[3],"inconclusive [cytotoxic, single point]"
same,Potency,[5],"inconclusive [cytotoxic, partial curve, poor fit]"
same,Potency,[4],inactive
NCCc1ccc(O)cc1,Potency,[1],inactive
same,Potency,[3],inactive
same,Potency,[4],inactive
C[C@]12CC[C@@H]3c4ccc(OC(=O)N(CCCl)CCCl)cc4CC[C@H]3[C@@H]1CC[C@@H]2O,Potency,[1],"inconclusive [cytotoxic, partial curve]"
same,Potency,[2],"inconclusive [cytotoxic, single point]"
same,Potency,[5],inactive
COP(=S)(OC)Oc1ccc(SC)c(C)c1,Potency,[1],inactive
same,Potency,[3],inactive
same,Potency,[8],inactive
CCCCCCCCCCCC[N+](C)(C)CCOc1ccccc1,Potency,[1],"inconclusive [cytotoxic, partial curve]"
same,Potency,[7],"inconclusive [cytotoxic, single point]"
same,Potency,[5],"inconclusive [cytotoxic, full curve, poor fit]"
CC[C@@H]1[C@@H](C)O[C@@](O)([C@@H](C)[C@H](O)[C@H](C)[C@H]2OC(=O)C=CC=C[C@@H](C)[C@@H]([C@@H](C)[C@@H](O)[C@H](C)[C@@]3(O)C[C@H](O[C@H]4C[C@H](O)[C@H](O)[C@H](C)O4)[C@H](CC)[C@@H](C)O3)OC(=O)C=CC=C[C@@H]2C)C[C@H]1O[C@H]1C[C@H](O)[C@H](O)[C@H](C)O1,Potency,[1],active: 0.418 µM
same,Potency,[7],active: 0.935 µM
same,Potency,[3],active: 21.5 µM
C[C@]12CC[C@H]3[C@@H](CC[C@@]45O[C@H]4C(O)=C(C#N)C[C@]35C)[C@H]1CC[C@H]2O,Potency,[1],"inconclusive [cytotoxic, partial curve, poor fit]"
same,Potency,[2],"inconclusive [cytotoxic, partial curve]"
same,Potency,[3],active: 12.1 µM
same,Potency,[6],"inconclusive [cytotoxic, single point]"
COP(=S)(OC)Oc1ccc(Sc2ccc(OP(=S)(OC)OC)cc2)cc1,Potency,[2],inactive
same,Potency,[6],inactive
same,Potency,[8],inactive
CC(O)(CS(=O)(=O)c1ccc(F)cc1)C(=O)Nc1ccc(C#N)c(C(F)(F)F)c1 (stereo not given),Potency,[2],active: 23.5 µM
same,Potency,[4],"inconclusive [cytotoxic, single point]"
same,Potency,[6],"inconclusive [cytotoxic, single point]"
O=C(O)CCCCCCNC1c2ccccc2CCc2ccccc21,Potency,[2],"inconclusive [cytotoxic, single point]"
same,Potency,[6],inactive
same,Potency,[8],inactive
O=C1CN=C(c2ccccc2)c2cc([N+](=O)[O-])ccc2N1,Potency,[2],"inconclusive [cytotoxic, partial curve, poor fit]"
same,Potency,[6],inactive
Nc1ccc([N+](=O)[O-])cc1,Potency,[2],inactive
same,Potency,[4],inactive
same,Potency,[8],inactive
C[C@]12CC[C@H]3[C@@H](CCC4=CC(=O)CC[C@@]43C)[C@H]1CC[C@H]2OC(=O)CCC1CCCC1,Potency,[2],"inconclusive [cytotoxic, single point]"
same,Potency,[3],"inconclusive [cytotoxic, partial curve]"
same,Potency,[4],inactive
Nc1ccc(Sc2ccc(N)cc2)cc1,Potency,[2],"inconclusive [cytotoxic, partial curve]"
same,Potency,[3],inactive
O=C(Oc1ccc([N+](=O)[O-])cc1)N1CCN(Cc2cccc(Oc3ccccc3)c2)CC1,Potency,[2],"inconclusive [cytotoxic, single point]"
same,Potency,[3],"inconclusive [cytotoxic, single point]"
same,Potency,[5],"inconclusive [cytotoxic, partial curve, poor fit]"

# From PubChem BioAssay (NCATS)
